Measurements taken from the supplement of paper PMC8728848.
The list shows a part of the results.

Columns and labels:
Test in all cases: glycan array binding signal (z-score within array); higher = stronger binding
Conditions in all cases: glycan notation: IUPAC condensed, linker removed
[1] = target: Neu5Ac(a2-3)Gal(b1-3)[Neu5Ac(a2-6)]GalNAc
Summary of the method: (§1)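 The binding signal is a Z-score computed within each array. Data were drawn from 3228 arrays in the Consortium for Functional Glycomics database, restricted to those with a known protein sequence. Scores were averaged over arrays of the same protein sequence at different concentrations or buffers, and over linkers, and negative values can be taken as non-binding.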

Neu5Ac(a2-3)Gal(b1-4)Glc = target: Neu5Ac(a2-3)Gal(b1-4)Glc
Summary of the method: as §1

[2] = target: Neu5Ac(a2-3)Gal(b1-4)GlcNAc
Summary of the method: as §1

[3] = target: Neu5Ac(a2-3)Gal(b1-4)GlcNAc(b1-2)Man(a1-3)[Neu5Ac(a2-3)Gal(b1-4)GlcNAc(b1-2)Man(a1-6)]Man(b1-4)GlcNAc(b1-4)GlcNAc
Summary of the method: as §1

[4] = target: Neu5Ac(a2-3)Gal(b1-4)GlcNAc(b1-3)Gal(b1-4)GlcNAc
Summary of the method: as §1

[5] = target: Neu5Ac(a2-3)Gal(b1-4)GlcNAc(b1-3)Gal(b1-4)GlcNAc(b1-3)Gal(b1-4)GlcNAc
Summary of the method: as §1

[6] = target: Neu5Ac(a2-3)Gal(b1-4)GlcNAc(b1-3)Gal(b1-4)[Fuc(a1-3)]GlcNAc
Summary of the method: as §1

[7] = target: Neu5Ac(a2-3)Gal(b1-4)GlcNAc6S
Summary of the method: as §1

[8] = target: Neu5Ac(a2-3)Gal(b1-4)[Fuc(a1-3)]GlcNAc
Summary of the method: as §1

[9] = target: Neu5Ac(a2-3)Gal(b1-4)[Fuc(a1-3)]GlcNAc(b1-3)Gal
Summary of the method: as §1

[10] = target: Neu5Ac(a2-3)Gal(b1-4)[Fuc(a1-3)]GlcNAc(b1-3)Gal(b1-4)GlcNAc
Summary of the method: as §1

[11] = target: Neu5Ac(a2-3)Gal(b1-4)[Fuc(a1-3)]GlcNAc(b1-3)Gal(b1-4)[Fuc(a1-3)]GlcNAc(b1-3)Gal(b1-4)[Fuc(a1-3)]GlcNAc
Summary of the method: as §1

[12] = target: Neu5Ac(a2-3)Gal(b1-4)[Fuc(a1-3)]GlcNAc6S
Summary of the method: as §1

[13] = target: Neu5Ac(a2-3)Gal6S(b1-4)GlcNAc
Summary of the method: as §1

[14] = target: Neu5Ac(a2-3)Gal6S(b1-4)[Fuc(a1-3)]GlcNAc
Summary of the method: as §1

Neu5Ac(a2-3)GalNAc = target: Neu5Ac(a2-3)GalNAc
Summary of the method: as §1

[15] = target: Neu5Ac(a2-3)GalNAc(b1-4)GlcNAc
Summary of the method: as §1

[16] = target: Neu5Ac(a2-3)[GalNAc(b1-4)]Gal(b1-4)Glc
Summary of the method: as §1

[17] = target: Neu5Ac(a2-3)[GalNAc(b1-4)]Gal(b1-4)GlcNAc
Summary of the method: as §1

[18] = target: Neu5Ac(a2-3)[Neu5Ac(a2-6)]GalNAc
Summary of the method: as §1

Neu5Ac(a2-6)Gal = target: Neu5Ac(a2-6)Gal
Summary of the method: as §1

Neu5Ac(a2-6)Gal(b1-4)Glc = target: Neu5Ac(a2-6)Gal(b1-4)Glc
Summary of the method: as §1

[19] = target: Neu5Ac(a2-6)Gal(b1-4)GlcNAc
Summary of the method: as §1

[20] = target: Neu5Ac(a2-6)Gal(b1-4)GlcNAc(b1-3)Gal(b1-4)GlcNAc
Summary of the method: as §1

[21] = target: Neu5Ac(a2-6)Gal(b1-4)GlcNAc(b1-3)Gal(b1-4)[Fuc(a1-3)]GlcNAc(b1-3)Gal(b1-4)[Fuc(a1-3)]GlcNAc
Summary of the method: as §1

[22] = target: Neu5Ac(a2-6)Gal(b1-4)GlcNAc6S
Summary of the method: as §1

Neu5Ac(a2-6)GalNAc = target: Neu5Ac(a2-6)GalNAc
Summary of the method: as §1

[23] = target: Neu5Ac(a2-6)GalNAc(b1-4)GlcNAc
Summary of the method: as §1

Neu5Ac(a2-8)Neu5Ac = target: Neu5Ac(a2-8)Neu5Ac
Summary of the method: as §1

[24] = target: Neu5Ac(a2-8)Neu5Ac(a2-3)Gal(b1-4)Glc
Summary of the method: as §1

[25] = target: Neu5Ac(a2-8)Neu5Ac(a2-3)[GalNAc(b1-4)]Gal(b1-4)Glc
Summary of the method: as §1

[26] = target: Neu5Ac(a2-8)Neu5Ac(a2-8)Neu5Ac
Summary of the method: as §1

[27] = target: Neu5Ac(a2-8)Neu5Ac(a2-8)Neu5Ac(a2-3)Gal(b1-4)Glc
Summary of the method: as §1

[28] = target: Neu5Ac(a2-8)Neu5Ac(a2-8)Neu5Ac(a2-3)[GalNAc(b1-4)]Gal(b1-4)Glc
Summary of the method: as §1

[29] = target: Neu5Ac(a2-8)Neu5Ac(a2-8)Neu5Ac(a2-8)Neu5Ac(a2-3)[GalNAc(b1-4)]Gal(b1-4)Glc
Summary of the method: as §1

Neu5Ac(b1-6)GalNAc = target: Neu5Ac(b1-6)GalNAc
Summary of the method: as §1

[30] = target: Neu5Ac(b2-6)Gal(b1-4)GlcNAc
Summary of the method: as §1

[31] = target: Neu5Ac9Ac(a2-6)Gal(b1-4)GlcNAc
Summary of the method: as §1

[32] = target: Neu5Gc(a2-3)Gal(b1-3)GlcNAc
Summary of the method: as §1

[33] = target: Neu5Gc(a2-3)Gal(b1-3)[Fuc(a1-4)]GlcNAc
Summary of the method: as §1

Neu5Gc(a2-3)Gal(b1-4)Glc = target: Neu5Gc(a2-3)Gal(b1-4)Glc
Summary of the method: as §1

[34] = target: Neu5Gc(a2-3)Gal(b1-4)GlcNAc
Summary of the method: as §1

[35] = target: Neu5Gc(a2-3)Gal(b1-4)[Fuc(a1-3)]GlcNAc
Summary of the method: as §1

[36] = target: Neu5Gc(a2-6)Gal(b1-4)GlcNAc
Summary of the method: as §1

Neu5Gc(a2-6)GalNAc = target: Neu5Gc(a2-6)GalNAc
Summary of the method: as §1

Measured: glycan array binding signal (z-score)

B1: PA-IL (Pseudomonas aeruginosa) (protein)
chain: AWKGEVLANNEAGQVTSIIYNPGDVITIVAAGWASYGPTQKWGPQGDREHPDQGLICHDAFCGALVMKIGNSGTIPVNTGLFRWVAPNNVQGAITLIYNDVPGTYGNNSGSFSVNIGKDQS
-0.364: [3] | [8] | [16] | Neu5Gc(a2-3)Gal(b1-4)Glc
-0.363: [34]
-0.362: [24]
-0.365: [1] | Neu5Ac(a2-3)Gal(b1-4)Glc | [2] | [4] | [5] | [6] | [7] | [9] | [10] | [11] | [12] | [13] | [14] | Neu5Ac(a2-3)GalNAc | [15] | [17] | [18] | Neu5Ac(a2-6)Gal | Neu5Ac(a2-6)Gal(b1-4)Glc | [19] | [20] | [21] | [22] | Neu5Ac(a2-6)GalNAc | [23] | Neu5Ac(a2-8)Neu5Ac | [25] | [26] | [27] | [28] | [29] | Neu5Ac(b1-6)GalNAc | [30] | [31] | [32] | [33] | [35] | [36] | Neu5Gc(a2-6)GalNAc
